Measured values from PubChem BioAssay AID488969 (Vanderbilt High Throughput Screening Facility, 2010).
Whole data set: some 110,000 compounds, median “z-score” near -0.1, cut for the highest 2% near 2. This is one part of the list. The source made the active and inactive calls.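 The calls were made as follows: active = z-score in the third read window above 3 or below -3; inactive = the rest.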

The compounds below were run against Metabotropic glutamate receptor 8 (Rattus norvegicus) (UniProt P70579) (assay: mGluR8 Gi/Go-coupled signaling modulation – cell-based, rat, thallium flux, HTS, primary screen (AID 488969)). Details: HEK293 rat mGluR8, GIRK (G protein-gated inwardly rectifying potassium channel) thallium flux, FluoZin2; at 10 µM; stronger effect = higher value; submaximal glutamate (EC20) added with thallium.
UniProt P70579, sequence (P70579 whole entry, looked up): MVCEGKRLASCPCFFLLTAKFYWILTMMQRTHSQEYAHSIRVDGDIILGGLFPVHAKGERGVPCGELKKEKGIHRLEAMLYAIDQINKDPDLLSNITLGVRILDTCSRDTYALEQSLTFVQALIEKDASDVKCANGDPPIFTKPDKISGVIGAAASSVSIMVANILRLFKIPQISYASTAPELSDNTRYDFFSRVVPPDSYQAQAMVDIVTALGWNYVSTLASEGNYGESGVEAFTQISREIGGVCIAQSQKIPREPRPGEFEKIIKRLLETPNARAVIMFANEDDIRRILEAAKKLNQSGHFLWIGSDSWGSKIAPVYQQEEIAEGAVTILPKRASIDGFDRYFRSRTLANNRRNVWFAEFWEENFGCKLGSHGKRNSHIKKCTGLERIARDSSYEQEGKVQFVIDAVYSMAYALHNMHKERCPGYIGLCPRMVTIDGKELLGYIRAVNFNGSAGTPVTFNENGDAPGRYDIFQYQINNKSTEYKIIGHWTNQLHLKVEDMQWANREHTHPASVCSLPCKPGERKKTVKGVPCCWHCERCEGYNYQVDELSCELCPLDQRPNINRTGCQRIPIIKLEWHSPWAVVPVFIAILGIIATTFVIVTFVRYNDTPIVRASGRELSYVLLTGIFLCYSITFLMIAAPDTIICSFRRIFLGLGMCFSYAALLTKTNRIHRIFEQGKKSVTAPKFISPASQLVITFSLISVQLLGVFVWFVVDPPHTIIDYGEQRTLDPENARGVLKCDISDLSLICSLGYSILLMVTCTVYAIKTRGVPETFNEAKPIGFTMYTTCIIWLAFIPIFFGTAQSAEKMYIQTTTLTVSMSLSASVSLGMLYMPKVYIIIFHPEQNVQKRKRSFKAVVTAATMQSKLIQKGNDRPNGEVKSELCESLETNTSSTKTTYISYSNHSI

Row | Compound | z-score
1 | CCOc1ccc(-c2cc(C(=O)O)c3ccccc3n2)cc1 | -0.933
2 | O=S(=O)(c1ccc(NC(=S)Nc2ccc3c(c2)OCO3)cc1)N1CCOCC1 | 0.154
3 | Cc1ccccc1N=Nc1c(C)[nH]n(C(N)=S)c1=O | 2.97
4 | CC(=Nc1ccccc1C)C1=C(O)CSC1=O | 0.486
5 | COC(=O)C1=C(C)NC(=O)C1(NC(=O)c1cccnc1)C(F)(F)F (stereo not given) | 0.884
6 | O=C(O)c1cc(-c2ccc(O)cc2)nc2ccccc12 | 0.225
7 | C=CCNC(=O)CN(c1ccc(OC)cc1OC)S(C)(=O)=O | 0.109
8 | COc1cc2c(cc1OC)C(C)N(C(=O)Cn1ncc3c1-c1cc(C)ccc1OC3)CC2 (stereo not given) | -0.0587
9 | COc1cccc(-c2nnc(SCC3CNC(=O)O3)n2-c2ccc(Cl)cc2)c1 (stereo not given) | -0.245
10 | Cc1cccc(OCC(=O)Nc2ccccc2-c2ccccc2)c1 | -0.165
11 | CC(C)NC(=O)NC(=O)COC(=O)CCOc1ccccc1 | -0.289
12 | COC(=O)CNC(=O)c1cccs1 | -0.513
13 | COc1ccc(CCn2c(C)c(C(C)=O)c3cc(OC(=O)c4ccco4)ccc32)cc1OC | -0.48
14 | COC(=O)C1=C(N)Oc2cc(C)n(CC3CCCO3)c(=O)c2C1c1ccccc1 (stereo not given) | -0.947
15 | O=C(Nc1ccccc1-c1nnn(CC(=O)N2CCc3ccccc3C2)n1)C1CCC1 | active: -3.74
16 | Cc1c(C(=O)C(=O)N2CC=C(c3ccccc3)CC2)c2ccccc2n1C | -0.486
17 | O=C(Nc1ccc2c(c1)OCCO2)C1CC1c1ccccc1 (stereo not given) | -0.121
18 | Cc1cc(C(=O)NCc2cc(C(=O)O)oc2C)c(C)o1 | -0.0206
19 | Cc1cccn2c(=O)c(C=Nc3ccccc3)c(NCCO)nc12 | -0.539
20 | COCCN1C(=O)C(O)=C(C(=O)c2cccs2)C1c1ccccc1 (stereo not given) | -0.725
21 | CC(C)c1nccn1S(=O)(=O)c1cccc([N+](=O)[O-])c1 | -0.678
22 | COC(=O)c1[nH]c2ccc(C)cc2c1NC(=O)Nc1ccc(OC)cc1 | -0.21
23 | CCOC(=O)c1sc(NS(=O)(=O)c2cc(C)ccc2C)nc1C | -0.555
24 | CCCCCn1c(CCC(=O)Oc2ccccc2OC)nc2c1c(=O)[nH]c(=O)n2CCCC | -0.309

Row | Compound | z-score
25 | COc1ccc(/C(C)=N/NC(=S)NCc2ccco2)cc1 | active: 4.34
26 | O=C(Nc1nnc(-c2ccccc2)s1)c1cc(S(=O)(=O)N2CCOCC2)c(Cl)cc1Cl | -0.234
27 | CN(C)c1ccnc(Oc2ccc(Cl)cc2)c1C#N | -0.151
28 | CN(C)S(=O)(=O)c1cccc(C(=O)N(Cc2ccc(F)cc2)Cc2ccco2)c1 | 0.217
29 | Cc1cccc(C(=O)O/N=C/c2c(N3CCOCC3)n(C)c3ccccc23)c1 | -0.109
30 | COc1ccc(-c2ccnc3nc(Sc4ncc(C(F)(F)F)cc4Cl)nn23)cc1 | active: -3.36
31 | O=C(CCNC(=O)Cn1ccc2ccccc2c1=O)NCCc1ccc(Cl)cc1 | -0.466
32 | C=CCn1c(SCCN2CCOCC2)nc2c1c(=O)[nH]c(=O)n2C | -0.0146
33 | COc1ccccc1-c1nnc(NC(=O)c2ccc(S(=O)(=O)N(C)Cc3ccccc3)cc2)o1 | 0.103
34 | Cc1cc(CN2CCN(CCC#N)CC2)c(O)c(C2(C)CCCCC2)c1 | 0.662
35 | Clc1cccc(COn2c(-c3ccc(Cl)cc3Cl)nc3ncccc32)c1 | 0.0843
36 | Cc1cc(C)n(-c2ccc(F)cc2)c(=O)c1C(=O)O | 1.52
37 | CC(Sc1nnnn1-c1ccc(Cl)cc1)C(=O)NCC(=O)Nc1ccc(F)c(F)c1F (stereo not given) | -0.067
38 | CCOC(=O)c1cnn(-c2nc(OCC)cc(OCC)n2)c1C | -0.402
39 | COc1ccc(C(=S)N2CCCC2)cc1 | -0.0384
40 | COC(=O)Cn1c(=NC(=O)c2ccc(OC)c(OC)c2)sc2cc(OC)ccc21 | -0.167
41 | COc1cc(C(=O)NC(c2ccccc2)c2ccccc2)cc(Cl)c1OC | 0.243
42 | COc1cccc(-n2nnc3c(=O)n(Cc4ccc(Br)cc4)cnc32)c1 | -0.275
43 | CCOCCOc1nc2c(c(=O)n(C)c(=O)n2C)n1Cc1ccc(C)cc1 | 0.678
44 | CSc1nnc(NC(=O)CCc2ccccc2)s1 | 0.2
45 | Nc1nc(SCC(=O)N2N=C3/C(=C/c4ccco4)CCCC3C2c2ccco2)n[nH]1 (stereo not given) | -0.422
46 | c1ccc(-c2nnc(-c3ccccc3)c(-c3c[nH]c4ccccc34)n2)cc1 | 0.446
47 | CCOc1ccc(NC(=O)CN(C)CC(=O)Nc2cc(Cl)ccc2C#N)cc1OCC | -0.41
48 | CCOC(=O)c1ccc(-n2c(O)c(/C=N/NC(=O)C3COc4ccccc4O3)c3ccccc3c2=O)cc1 (stereo not given) | 0.296

Row | Compound | z-score
49 | Cc1c(Cl)cccc1NC(=S)NCCC(C)C | 0.733
50 | CSc1nc(O)c(/C=C2\C=Nc3ccccc32)[nH]1 | -0.16
51 | Cc1ccc(NC(=O)c2sc(Cl)nc2-c2ccccc2)cc1 | -0.823
52 | CC(=O)Nc1nnc(-c2ccc3c(c2)CCCC3)o1 | 0.0154
53 | O=c1cc[nH]c2cc(C(F)(F)F)ccc12 | 0.361
54 | O=C(Cn1cnc2ccccc2c1=O)NCc1ccco1 | 0.0951
55 | COc1ccc(-c2nc(N)n(C(=O)c3ccccc3Cl)n2)cc1 | 0.213
56 | CC1(C)CC(=O)C(/C=N/n2c(C(F)(F)F)nc3ccccc3c2=O)=C(O)C1 | -0.706
57 | O=C(COc1ccc(CO)cc1Cl)Nc1ccc(F)cc1 | 0.647
58 | O=C(/C=C/c1ccc([N+](=O)[O-])cc1)NCC1CCCO1 (stereo not given) | -0.077
59 | CN(C)c1nc(SCC#N)nc(N(C)C)n1 | 0.0633
60 | Cc1ccc(C2(C(F)(F)F)N=C3Sc4cc(C)ccc4N3C(=O)N2)cc1 (stereo not given) | -0.275
61 | O=C(CSc1ccc2nnc(-c3ccccn3)n2n1)NCC1CCCO1 (stereo not given) | -0.0414
62 | CC1N(C)c2cc(NC(=O)c3ccco3)ccc2C1(C)C (stereo not given) | -0.832
63 | CNC(=S)Nc1ccc(C23CC4CC(CC(C4)C2)C3)cc1 | 0.295
64 | Cc1cccc2cc(CN(C(=O)c3cnccn3)C3CCCCC3)c(Cl)nc12 | -1.1
65 | COC(=O)c1ccc(NC(=O)CSc2nnnn2C2CCCCC2)cc1 | -0.979
66 | O=C(Nc1ccc(-c2csc(-c3ccccc3)n2)cc1)c1ccccc1Cl | 0.0278
67 | COc1ccc(Cn2c(C3CC3)nc3ccc(NC(=O)c4ccco4)cc3c2=O)cc1 | -0.491
68 | COc1ccc(C(=O)CCC(=O)N2CCN(c3ccc(N4CCOCC4)nn3)CC2)cc1 | 0.0583
69 | NC(=O)CN1C(=O)C(O)(CC(=O)/C=C\C=C\c2ccccc2)c2ccccc21 (stereo not given) | -0.294
70 | CCOc1ccc(NC(=S)N(Cc2ccc(N(C)C)cc2)Cc2ccco2)cc1 | 0.23
